About 60 (0.1%) of roughly 46,000 compounds were called active. Inconclusive results (about 3%) are left out. Calls come from the whole dose curve; as a rule, active = well fitted inhibition curve with a large enough effect; inconclusive = small, poorly fitted or top-dose-only effect; inactive = no such curve, though single readings can be large or run the other way. The list shows a part of the results.
test: Primary qHTS assay for Inhibitors of ovarian cancer metastasis using an organotypic tumor microenvironment (TME) model.; note: nearly all actives have a fitted effect of over 65% in size;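 for activity change, negative = inhibition: plate controls were DMSO wells for no effect and tomatine positive control wells for full effect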; conditions: SKOV3ip1-GFP adhesion/invasion on 3D omental model, fluorescence; series mostly up to 45.8 µM; activity change, negative = inhibition: at the top concentration
Method in brief: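 qHTS, 4-pt dose (0.36-46 umol/L); SKOV3ip1-GFP, 1,200 cells/well, no FBS; primary omental fibroblast/mesothelial co-culture 48 h pre-grown; 2 h RT + 16 h 37 C; PBS wash, 4% PFA; GFP count 488/509 nm.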

| SMILES | activity change, negative = inhibition | outcome |
| --- | --- | --- |
| COc1ccc(N2CCN(CCCNC(=O)C3COc4ccccc4C3)CC2)cc1 (configuration not stated) | inactive: 7.16% | – |
| O=C(Nc1ccc(F)cc1)Nc1csc2c1CCCC2 | inactive: -22.7% | – |
| Cc1ccc(CNC(=O)CSc2nc3c(sc4ccccc43)c(=O)n2CCCC(=O)NCCO)cc1 | inactive: 22.5% | – |
| CCN1C(C(=O)c2ccccc2)=C(OC(=O)COc2ccc(C)cc2)c2ccccc2S1(=O)=O | – | inactive |
| COC(=O)c1ccc(N2C(=O)Cc3cc(OC)c(OC)cc3C2c2ccc(F)cc2)cc1 (configuration not stated) | inactive: 2.82% | – |
| CCOc1ccc(-n2c(=O)c3c4c(sc3n(CC(=O)NC(C)CC)c2=O)CCCCC4)cc1 (configuration not stated) | – | inactive |
| COc1cc(-c2nc3sccn3c2Nc2c(C)cccc2C)ccc1O | inactive: 8.93% | – |
| Cn1ncc2c(N3CCN(c4ccc(F)cc4)CC3)ncnc21 | inactive: 2.34% | – |
| O=C(Cc1ccc(-c2ccccc2)cc1)NCCS(=O)(=O)N1CCN(c2ccc(F)cc2)CC1 | inactive: -19.8% | – |
| Cc1c(CCNC(=O)c2c(F)cccc2F)sc2nc(-c3ccc(F)cc3)nn12 | inactive: 15.1% | – |
| O=C(Nc1nnc(-c2ccco2)o1)c1cc(-c2ccccc2)nc2ccccc12 | inactive: -1.45% | – |
| CCOc1ccc(CCn2c3c(c(=O)[nH]c2=O)C(NC(=O)c2cccc(F)c2)(C(F)(F)F)C(=O)N3)cc1OCC (configuration not stated) | – | inactive |
| CC(=O)N1CCCC1c1nc2ccccc2n1Cc1ccccc1Cl (configuration not stated) | inactive: -2.06% | – |
| CCn1c(C(=O)NCCc2ccc(S(N)(=O)=O)cc2)cc2sc(Cl)cc21 | inactive: -0.841% | – |
| CC(=O)N1CCCc2ccc(NS(=O)(=O)c3cccc(Cl)c3)cc21 | – | inactive |
| O=C1Cc2cc(S(=O)(=O)N3CCN(c4cccc(Cl)c4)CC3)ccc2N1 | inactive: -5.4% | – |
| CCOC(=O)c1cnc2c(ccc3ccccc32)c1Nc1ccc(C(C)=O)cc1 | inactive: -15.3% | – |
| COc1cccc(CSc2nc3ccncc3n2CC(=O)Nc2ccc(OC)c(OC)c2OC)c1 | – | inactive |
| Cc1cn(-c2cc(NC(=O)c3ccc(C)c(Nc4nccc(-c5cccnc5)n4)c3)cc(C(F)(F)F)c2)cn1 | inactive: 9.81% | – |
| Cc1cccc(OCc2nc(CC(=O)Nc3ccc(Cl)cc3)cs2)c1 | inactive: -8.39% | – |
| CCC1CN(C(=O)N2CCC(C(=O)NCCc3ccc(OC)cc3OC)CC2)c2cc(C)ccc2O1 (configuration not stated) | inactive: -1.67% | – |
| Cc1cccc(C)c1-n1ncc(C(=O)NCCCN2CCC(C)CC2)c1C1CCN(C(=O)OC(C)(C)C)CC1 | inactive: -5.63% | – |
| Cc1cc(Nc2ccc(Br)cc2)nc(C)n1 | inactive: -22.5% | – |
| CCc1ccccc1NC(=O)C1CCN(S(=O)(=O)c2cn(C)cn2)CC1 | inactive: -1.88% | – |

| SMILES | activity change, negative = inhibition | outcome |
| --- | --- | --- |
| CCOC(=O)c1sc2ccccc2c1S(=O)(=O)NCc1ccccc1OC | inactive: 1.35% | – |
| Cc1cc(C)nc(-n2nc(C)c3c2N(Cc2ccccc2F)C(=O)CC3c2ccc(Cl)cc2)n1 (configuration not stated) | inactive: -11.1% | – |
| COc1cccc(NC(=O)CCN2C(=O)c3ccccc3Sc3ncccc32)c1 | – | inactive |
| CCc1cc2c(cc3c(=O)n(CC(=O)NC(C)c4ccccc4)ncn32)s1 (configuration not stated) | – | inactive |
| O=S(=O)(c1ccc(Cl)cc1)c1nc(-c2cccs2)oc1N1CCCCC1 | inactive: -2.5% | – |
| COc1ccccc1CNC(=O)Cc1csc2nc(-c3ccc(F)cc3)cn12 | inactive: -5.62% | – |
| O=C1C(c2ccc(F)cc2)N(CCc2ccc(Cl)cc2)C(=O)CN1C1CCCCC1 (configuration not stated) | – | inactive |
| CCc1ccc(S(=O)(=O)Nc2cccc(-c3ccc(N4CCCCC4)nn3)c2)s1 | inactive: -0.386% | – |
| Cc1nnc(N2CCN(C(=O)NCCC(C)C)CC2)c2nn(-c3ccc(Cl)cc3)c(C)c12 | inactive: -5.11% | – |
| CCOc1cc(C(=O)Nc2cc3c(cc2N2CCCC2)n(C)c(=O)c(=O)n3C)cc(OCC)c1OCC | – | inactive |
| O=C(Nc1sc2c(c1C(=O)NCc1ccco1)CCCC2)c1cc(=O)c2cc(Cl)ccc2o1 | inactive: 1.19% | – |
| CCC(=O)N1CCc2cc(Br)cc(S(=O)(=O)NCCc3cccc(C)c3)c21 | inactive: -2.12% | – |
| Cc1cccc(C(=O)Nc2cc3c(cc2C)n(C)c(=O)n3C)c1 | – | inactive |
| COCc1nc2ccccc2n1Cc1ccc(C(C)(C)C)cc1 | inactive: 3.65% | – |
| CC(=O)Nc1ccc(NC(=O)c2ccc3c(c2)N(Cc2cccc(Cl)c2)C(=O)c2ccccc2S3=O)cc1 (configuration not stated) | inactive: -12.2% | – |
| Cc1ccc(Cn2c(=O)n(Cc3ccccc3)c(=O)c3oc4ccccc4c32)cc1 | inactive: -10.2% | – |
| CC(=O)N1CCc2cc(S(=O)(=O)NC(Cc3ccccc3)C(=O)NCc3ccccc3)ccc21 (configuration not stated) | inactive: 8.92% | – |
| CC(=O)N1CCc2c(sc3c2c(=O)n(-c2ccccc2)c(=O)n3CC(=O)c2ccccc2)C1 | inactive: 20.6% | – |
| O=C(NC1CCN(Cc2ccccc2)CC1)c1ccc(Cn2c(=O)c3ccccc3n(Cc3ccc(Cl)cc3)c2=O)cc1 | inactive: -9.49% | – |
| COc1ccc(NC(=O)Nc2cc(-c3cn4cccnc4n3)ccc2C)cc1 | – | inactive |
| Cc1ccc2c(c1)-c1nc(-c3ccc4c(c3)NC(=O)CO4)cc(-c3ccccc3)c1CO2 | – | inactive |
| CC(=O)N1CCC(N(Cc2ccc(C)o2)C(=O)Nc2cccc(C(F)(F)F)c2)CC1 | inactive: -7.61% | – |
| Cc1ccc(C)c(NC(=O)CN2C(=O)CCc3cc(S(=O)(=O)N4CCCCC4)ccc32)c1 | – | inactive |

Source: PubChem BioAssay AID1963576 (National Center for Advancing Translational Sciences (NCATS), 2024)
